The whole screen tested about 71,000 compounds, of which about 1,800 (2.5%) were called active. Inconclusive means that the source gave no clear call. Such entries were picked first, then a sample of the others. The call rests on the fitted dose curve; in most records, active means well fitted activation curve with a large enough effect in the signal ratio, with a control signal flat (not every such curve was filed as active); inconclusive means small, poorly fitted or top-dose-only effect, or effect the other way, or a change in a side signal; inactive means flat fitted curve, though single readings scatter; the % refers to the signal ratio. Potencies beside an inconclusive call are fits to weak or partial responses and may not hold up.
Assay: Cell signaling CRE-BLA (Fsk stim); on activity change, negative = inhibition: % of control where 0% means no effect
Conditions: CHO CRE-bla reporter (cAMP response element driving beta-lactamase), forskolin EC10, beta-lactamase ratio; activity change, negative = inhibition: at 38.2 µM (top of the series) unless noted
Method in brief: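 CRE-bla CHO reporter cells treated with compound titration plus EC10 NKH 477 (water-soluble forskolin), incubated 3 h at 37 °C; CCF4 loading 2 h at room temperature, 460/530 nm emission ratio read, AC50 values derived for positive or negative modulators.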
Potency means the concentration at half of the fitted maximal effect; tags describe the fitted curve by direction and shape.

SMILES | activity change, negative = inhibition | Potency
O=C(CSc1ncn[nH]1)Nc1nc(-c2ccccc2)ns1 | inconclusive: -19.6% [fluorescent] | 
Clc1ccccc1-c1nc(Nc2ccncc2)c2ccccc2n1 |  | inconclusive: 12.6 µM [rising, partial curve]
N#Cc1cccc(-c2nc(N3CCNCC3)c3ccccc3n2)c1 | inconclusive: 22.4% | 
COc1ccc(C2CC(=O)N3CN(c4ccccc4F)CSC3=C2C#N)cc1OC (configuration not stated) |  | inconclusive: 10 µM [rising, single point]
CCOc1ccc(CC(=O)Nc2c(C(N)=O)oc3ccccc23)cc1OCC |  | inconclusive: 6.31 µM [rising, partial curve, poor fit]
O=C(COC(=O)C1COc2ccccc2O1)NC(=O)NC1CCCC1 (configuration not stated) |  | inactive
CC(=O)N1CCc2cc(Br)cc(S(=O)(=O)N3CCN(C(=O)c4ccco4)CC3)c21 | inconclusive: 23.9% | 
Cc1ccc2cc(C#N)c(N3CCCC3)nc2c1C |  | inconclusive: 12.6 µM [rising, single point]
C=CCN(CC=C)S(=O)(=O)c1ccc2nc(NC(=O)C(C)C)sc2c1 |  | inconclusive: 12.6 µM [rising, partial curve]
Cc1cc(N2CCN(c3ccccn3)CC2)n2nc(C)nc2n1 |  | inconclusive: 20 µM [rising, single point]
Cc1nc2ccccc2n2c(O)c(CC(=O)O)cc12 | inconclusive: 6.17% [fluorescent] | 
CCCCCCn1cnc2c(c1=O)c1nc3ccccc3nc1n2Cc1cccs1 | inconclusive: 5.52% | 
Cc1nc(C)c(C(=O)Nc2ccccc2-c2ccccc2)o1 |  | inactive
COc1cc(NC(=O)CCCC(=O)OCC(F)(F)C(F)F)nc(OC)n1 |  | inactive
CCN(CC)S(=O)(=O)c1ccc(NC(=O)Cn2cnc3ccccc3c2=O)cc1 |  | inactive
COc1ccc(Oc2ncc3nc(C)c(=O)n(C[C@H]4CCCO4)c3n2)cc1 |  | inconclusive: 10 µM [rising, partial curve]
O=C(Nc1nc(-c2ccccc2)cs1)C1CCCCN1S(=O)(=O)c1ccccc1 (configuration not stated) |  | inconclusive: 3.98 µM [falling, partial curve]
O=C(NCC1CCCO1)C1CCCN(Cc2cnn(-c3ccccc3)c2-n2cccc2)C1 (configuration not stated) | inconclusive: 21.5% | 
Cc1ccc(NC(=O)CSc2nnc(CCCCCNC(=O)OC(C)(C)C)o2)c(C)c1 | inconclusive: 3.7% | 
O=C(Nc1ccc2c(c1)OCO2)c1cccc2c1C(=O)N(Cc1cccnc1)C2 |  | inconclusive: 10 µM [rising, partial curve]
CC(=O)NCCNc1nc(-c2c(C)noc2C)nc2ccccc12 |  | inconclusive: 10 µM [rising, partial curve]
CCOC(=O)c1sc(NC(C)=O)c(C(=O)OCC)c1C |  | inconclusive: 15.8 µM [rising, partial curve]
COc1cccc(OC)c1C(=O)Nc1ccccc1C(=O)N1CCOCC1 |  | inconclusive: 15.8 µM [rising, partial curve]
CCOC(=O)c1[nH]c2ccc(OC)cc2c1NC(=O)CN1CCSCC1 |  | inconclusive: 12.6 µM [rising, partial curve]
COc1ccc(O)c(C(=O)c2cnc3onc(C)c3c2)c1 |  | inconclusive: 10 µM [rising, single point]
Cc1ccc(-c2nc3ncccc3o2)cc1NC(=O)Cc1ccc(Cl)cc1 | inconclusive: -5.37% [at 7.6 µM] | 

SMILES | activity change, negative = inhibition | Potency
C#CCOC(=O)CCC(=O)Nc1cc(OC)nc(OC)n1 |  | inactive
CC(C)(C)N1C(=O)Cc2c1nc(N)c1c(N)nc(N3CCCCC3CO)c(C#N)c21 (configuration not stated) |  | active: 2.51 µM
OCCNc1cc(-n2nc(-c3ccccc3)cc2-c2ccccc2)ncn1 | inconclusive: -7.4% | 
COc1ccc2nc3sc(C(=O)N4CCN(C)CC4)cc3cc2c1 | inconclusive: 47.3% | 
Nc1ccccc1CCCC(=O)O | inactive: -1.25% [at 7.6 µM] | 
COc1ccc(C2/C(=C(/O)c3ccc(Cl)cc3)C(=O)C(=O)N2CCN2CCOCC2)c(OC)c1 (configuration not stated) | inconclusive: -0.059% | 
NC(=O)c1ncn([C@@H]2O[C@@H](CO)[C@@H](O)[C@H]2O)c1O |  | inactive
Cc1cc(=O)[nH]c(SCc2cccc(Br)c2)n1 | inconclusive: 0.858% | 
Cn1cccc1C(=O)N1CCC2(CCCN(Cc3ccc(C#N)cc3)C2)CC1 |  | inactive
NC[C@@H]1O[C@H](O[C@H]2[C@H](O)[C@@H](O[C@H]3[C@H](O)[C@H](N)C[C@H](N)[C@H]3O[C@@H]3O[C@H](CO)[C@@H](O)[C@H](O)[C@@H]3N)O[C@H]2CO)[C@@H](N)[C@H](O)[C@@H]1O |  | inactive
CCOC(=O)c1ccc(Cn2cnc3ccccc3c2=O)cc1 |  | inconclusive: 12.6 µM [rising, single point]
CCOC(=O)c1ccc(S(=O)(=O)n2c(CN3CCCCC3)nc3ccccc32)cc1 |  | inconclusive: 3.98 µM [rising, single point]
COc1cccc(CNC(=O)c2cc3oc4ccccc4c3n2C)c1OC |  | inconclusive: 7.94 µM [rising, partial curve]
Clc1ccc(CSc2nnc(-c3ccncc3)o2)c(Cl)c1 | inconclusive: 19.1% | 
O=C(CN1C(=O)CCC1=O)Nc1ccc2c3c(cccc13)CC2 | inconclusive: -11.3% | 
Nc1nc(-c2nc3ccccc3[nH]2)cs1 |  | inactive
COc1cccc(OCc2nnc(SC)n2C)c1 |  | inactive
Cc1ccc2cc(C#N)c(NCCNC(=O)C3CCC3)nc2c1C | inconclusive: 23.9% | 
Cc1occc1C(=O)N1CCN(c2ncccn2)CC1 | inconclusive: -16.2% [at 7.6 µM] | 
COCCn1c(=O)c(-c2cn(C)c3ccccc23)nc2cnc(Oc3ccccc3)nc21 |  | inconclusive: 1.58 µM [rising, full curve]
COC(=O)N1[C@H](C)C=C[C@]1(Cc1ccccc1)C(=O)NCc1ccc(C)o1 |  | inconclusive: 10 µM [falling, single point]
CCOc1ccc2nc(NC(=O)C3CCN(c4cnccn4)CC3)sc2c1 | inconclusive: 21.5% | 
[O-][n+]1onc2c1CCc1c-2nn(-c2ccccc2Cl)[n+]1[O-] |  | inconclusive: 6.31 µM [falling, partial curve]
CCOc1ccc(N2C(=O)c3ccccc3C2O)cc1 (configuration not stated) | inconclusive: 2.64% | 
NC(=O)CC12CC3CC(C1)CC(CC(N)=O)(C3)C2 | inconclusive: 0% | 
CCOc1ccc(-c2nnc(-c3cccs3)o2)cc1OCC |  | inactive

SMILES | activity change, negative = inhibition | Potency
CC(=O)[C@H]([C@@H](c1ccccc1)N1CCOCC1)N1CCOCC1 | inactive: -3.51% [at 7.6 µM] | 
Cc1cccc(OCC(=O)Nc2ccc(N3CCN(S(C)(=O)=O)CC3)cc2)c1 |  | inactive
COC(=O)c1c(NC(=O)C2CC2)sc2c1CCN(C(C)=O)C2 |  | inconclusive: 12.6 µM [rising, partial curve]
COc1ccc(S(=O)(=O)N2CCCN(S(=O)(=O)c3ccc(OC)cc3C)CC2)c(C)c1 | inconclusive: -2.14% [at 7.6 µM] | 
CCOC(=O)c1c(NC(=O)OC)sc(C(=O)N(C)C)c1C |  | active: 3.98 µM
CN(C1=NC(=O)C(CC(=O)Nc2ccc(Br)cc2)S1)c1ccc(O)cc1 (configuration not stated) | inconclusive: 27.6% | 
CCn1cc(C(=O)NC2CCc3ccccc32)c(=O)c2ccc(C)nc21 (configuration not stated) |  | inactive
Cc1nnc2sc(-c3ccc(NC(=O)CSc4ccc(Cl)cc4)cc3)nn12 |  | inconclusive: 15.8 µM [rising, single point]
COc1cc(Cl)c(C)cc1NC(=O)CSc1nnc(-c2ccco2)n1CC(C)C |  | inconclusive: 3.16 µM [rising, full curve]
CC1(C)C2CCC1(CS(=O)(=O)NCc1ccc(C(=O)O)cc1)C(=O)C2 (configuration not stated) | inconclusive: -5.03% | 
CCOC(=O)N1CCN(C(=O)c2ccc3c(=O)n(CCC4=CCCCC4)c(=O)[nH]c3c2)CC1 |  | inconclusive: 7.94 µM [falling, partial curve]
COc1ccccc1N(CC(=O)Nc1ccccc1C)S(C)(=O)=O | inconclusive: -18.4% [at 7.6 µM] | 
CNc1nc(N2CCc3ccccc32)ncc1F |  | inconclusive: 25.1 µM [rising, single point]
O=C(CN1C(=O)c2ccccc2S1(=O)=O)NCc1ccccn1 | inconclusive: 8.12% | 
Nc1c(C(=O)NC2CCCC2)c2nc3ccccc3nc2n1/N=C/c1cccnc1 |  | inconclusive: 1 µM [rising, full curve]
CCC(=O)N1CCc2cc(S(=O)(=O)N3CCc4ccccc4C3)ccc21 |  | inactive
Clc1ccccc1-c1ccc2ncnc(NC3CCNCC3)c2c1 |  | inconclusive: 6.31 µM [rising, partial curve]
CCN=c1scc(-c2ccc3c(c2)NC(=O)CO3)n1N=C1CCCC1 | inconclusive: -4.27% | 
O=C(NC(Cc1c[nH]c2ccccc12)c1nnc2n1CCCCC2)c1cccs1 (configuration not stated) |  | inconclusive: 3.98 µM [falling, single point]
Cc1cc(C)n2nc(CC(=O)NC3CCCC(C)C3C)nc2n1 (configuration not stated) |  | inactive
Cc1ccc(Nc2cc(C)nc3nnnn23)cc1 | inconclusive: 13.2% | 
Cc1ccc(C)c(-n2c(SCC(N)=O)nnc2-c2ccccn2)c1 |  | inconclusive: 10 µM [rising, partial curve]
O=C(O)c1cccc(N2C(=O)CCC2=O)c1 | inconclusive: -1.86% | 
CN(C)C(=O)c1ccc(-c2ccc3ncnc(N4CCNCC4)c3c2)cc1 | inconclusive: 22.6% | 
CC1Cc2ccccc2N1S(=O)(=O)c1cccc(C(=O)OCC(=O)NC2CCS(=O)(=O)C2)c1 (configuration not stated) | inconclusive: -3.63% | 

Reference: PubChem BioAssay AID662 (National Center for Advancing Translational Sciences (NCATS), 2007)
